The values that follow come from the antibiotic and cytotoxicity screens of Wong et al. (2023).

This is one part of the list.

In this assay the test system is HSkMC (human skeletal muscle cells). Briefly: cytotoxicity call (relative viability < 0.9). To be noted: 10 µM.
With `Nc1nc(/C(=C/CC(=O)O)C(=O)N[C@@H]2C(=O)N3C(C(=O)O)=CCS[C@H]23)cs1`, the cytotoxicity call was “inactive”.

Consider `CC[C@@]1(C)CC(=O)NC1=O`, for which the cytotoxicity call is “inactive”.

For the compound `C[C@@H]1CN([C@@H](C)CO)C(=O)Cc2cc(NS(=O)(=O)c3cccs3)ccc2O[C@H]1CN(C)S(C)(=O)=O`, the cytotoxicity call was “inactive”.

For `COc1ccc2c3c([nH]c2c1)[C@H](CO)N(C[C@]13CCN(CC1)CC1CCCC1)C(=O)CN1CCOCC1`, the cytotoxicity call was “inactive”.

Turning to `C[C@@H]1CN([C@@H](C)CO)C(=O)Cc2cc(NC(=O)NC3CCCCC3)ccc2O[C@H]1CN(C)Cc1ccc(C(=O)Nc2ccccc2N)cc1`, the cytotoxicity call was “inactive”.

Take `C[C@@H]1CN([C@H](C)CO)C(=O)Cc2cc(NC(=O)C3CC3)ccc2O[C@@H]1CN(C)Cc1ccc(Oc2ccccc2)cc1`: the cytotoxicity call is “inactive”.

With `C[C@H](CO)N1C[C@H](C)[C@H](CN(C)C(=O)Nc2ccc(F)cc2)Oc2ccc(NS(C)(=O)=O)cc2CC1=O`, the cytotoxicity call is “inactive”.

As to `COC(=O)c1ccc(C(=O)OC)nc1`, the cytotoxicity call is “active”.

For the compound `CCOC(=O)CCCCCC(=O)Nc1ccc2c(c1)C(=O)N([C@@H](C)CO)C[C@H](C)[C@H](CN(C)S(C)(=O)=O)O2`, the cytotoxicity call is “inactive”.

With `Cc1ccc(S(=O)(=O)N(C)C[C@H]2Oc3ccc(NC(=O)Nc4cccc5ccccc45)cc3CC(=O)N([C@H](C)CO)C[C@@H]2C)cc1`, the cytotoxicity call is “inactive”.

In the case of `COCCOC(=O)N1C(=O)[C@@]2(c3cc(C#CCC(C(=O)OC)C(=O)OC)ccc31)[C@H](C(=O)Nc1nc3ccccc3s1)[C@H]1C(=O)O[C@H](c3ccccc3)[C@H](c3ccccc3)N1[C@@H]2c1ccccc1OCCO`, the cytotoxicity call was “inactive”.

For the compound `O=C(C[C@@H]1C[C@H]2c3cc(NS(=O)(=O)c4ccc(F)cc4)ccc3O[C@H]2[C@H](CO)O1)NC1CCCCC1`, the cytotoxicity call was “inactive”.

On to `COc1ccc(CN(C)C[C@@H]2OCCCC[C@H](C)Oc3ccc(NS(=O)(=O)c4ccc(OC)cc4)cc3C(=O)N([C@H](C)CO)C[C@@H]2C)cc1`, for which the cytotoxicity call was “inactive”.

Turning to `CN(C)CC#Cc1ccc([C@H]2[C@H](CO)N3CCCCN(C(=O)CN(C)C)C[C@@H]23)cc1`, the cytotoxicity call was “inactive”.

Consider `C[C@@H]1CN([C@@H](C)CO)C(=O)Cc2cc(NC(=O)Cn3cnnn3)ccc2O[C@H]1CN(C)C(=O)Nc1ccc2c(c1)OCO2`, for which the cytotoxicity call is “inactive”.

Turning to `COc1ccc([C@H]([C@@H](O)Cc2ccccc2)N(C/C=C/[C@@H](O)c2ccccc2)[C@@H](Cc2ccccc2)C(OC)OC)cc1`, the cytotoxicity call is “inactive”.

Take `Cc1cc(C(=O)Nc2ccc3c(c2)C(=O)N(C)[C@H]2CC[C@@H](CC(=O)NCC(F)(F)F)O[C@H]2CO3)no1`: the cytotoxicity call was “inactive”.

Turning to `CNC(=O)C[C@H]1CC[C@H]2[C@@H](COC[C@H](O)CN2C(=O)c2ccc3c(c2)OCO3)O1`, the cytotoxicity call is “inactive”.

As for `C[C@H]1CN([C@@H](C)CO)C(=O)c2cc(NS(=O)(=O)c3cn(C)cn3)ccc2O[C@H]1CN(C)CC1CCCCC1`, the cytotoxicity call was “inactive”.

As to `C[C@@H]1CCCCO[C@@H](CN(C)S(=O)(=O)c2ccccc2)[C@H](C)CN([C@@H](C)CO)C(=O)c2cc(NC(=O)Nc3ccc(F)cc3)ccc2O1`, the cytotoxicity call is “inactive”.

`C[C@@H]1CCCCO[C@@H](CN(C)C(=O)Cc2ccccc2)[C@@H](C)CN([C@H](C)CO)C(=O)c2cc(NC(=O)c3ccccc3)ccc2O1`: the cytotoxicity call is “inactive”.

Take `COc1ccc(-c2cnc3c(c2)C(=O)N([C@H](C)CO)C[C@@H](C)[C@H](CN(C)S(=O)(=O)c2ccc(OC)cc2)O3)cc1`: the cytotoxicity call is “inactive”.

Take `CC(C)N1C(=O)c2cccc(NC(=O)c3ccncc3)c2O[C@H](CN(C)Cc2ccc(Cl)cc2)[C@H]1C`: the cytotoxicity call was “inactive”.

For `Cc1noc(C)c1NC(=O)N(C)C[C@@H]1Oc2ccc(NS(=O)(=O)c3c(C)noc3C)cc2C(=O)N([C@@H](C)CO)C[C@@H]1C`, the cytotoxicity call is “inactive”.

On to `Cl.NC12CC3CC(CC(C3)C1)C2`, for which the cytotoxicity call was “inactive”.

As for `Clc1ccc(CSC(Cn2ccnc2)c2ccc(Cl)cc2Cl)cc1.O=[N+]([O-])O` (stereo not given), the cytotoxicity call was “active”.

With `C[C@@H]1CN([C@@H](C)CO)C(=O)c2cccc(NC(=O)Nc3ccc(C(F)(F)F)cc3)c2O[C@H]1CN(C)Cc1ccc(Oc2ccccc2)cc1`, the cytotoxicity call was “active”.

`C[C@@H]1CN([C@@H](C)CO)C(=O)Cc2cc(NC(=O)Cc3cn(C)c4ccccc34)ccc2O[C@@H]1CN(C)S(C)(=O)=O`: the cytotoxicity call was “inactive”.

For `CN(C)c1ccc(O)c2c1C[C@@H]1C[C@@H]3[C@@H](N(C)C)C(=O)C(C(N)=O)=C(O)[C@]3(O)C(=O)[C@H]1C2=O`, the cytotoxicity call is “inactive”.

For `C[C@@H]1CN([C@@H](C)CO)C(=O)c2cc(N(C)C)ccc2O[C@@H](C)CCCCO[C@H]1CN(C)Cc1ccc(C(F)(F)F)cc1`, the cytotoxicity call is “inactive”.
